# The source gives no read counts; variants with many changes may rest on few reads.
# B1: OR4K15 (parent)
# chain: GUUAACGGUCAUAGGCCAUGGAAACUAGGAGCACCAUUUCGCUGCCAGUGAAGAAAUGAACAAAGAAAAUCUGGGCCAGGCAGGCAUCAAAAGAAAUAGUCUUGCGCUCAACCAGAAAGUCUGUAAUCAUUUUAAGGGUA
# Variants of: B1
# Assay: self-cleavage, relative activity (ratio to wild type); higher = more cleavage; in vitro, sequencing; the parent is a self-cleaving ribozyme
row,Variant,self-cleavage
1,GUUAACGGUCAUAGGCCAUGGAAACUAGGAGCACCAUUUCGCUGCCAGUGAAGAAAUGAACAAAGAAAAUCCGGGCCAGGCAGGCAUCAAAAGAAAUAGUCUUGCGCUCAAGCAGAAAGUCUGUAAUCACUUUAAGGGUA,0
2,GUUAACGGUCAUAGGCCAUGGAAACUAGGAGCACCAUUUCGCUGCCAGUGAAGAAAUGAACAAAGAAAAUCUGAGCCAGGCAGGCAUCUAAAGAAAUAGUCUUGCGCUCAACCAGAAUGUCUGUAAUCAUUUUAAGGGUA,0.09
3,GUUAACGGUCAUAGGCCAUGGAAACUAGGAGCACCAUUUCGCUGCCAGUGAAGAAAUGAACAAAGAAAAUCCGGGCCAGGCAGGCAUCGAAAGAAAUAGUCUUGCGCUCAACCAGAAAGUCUGCAAUCAUUUUAAGGGUA,0.08
4,GUUAACGGUCAUAGGCCAUGGAAACUAGGAGCACCAUUUCGCUGCCAGUGAAGAAAUGAACAAAGAAAAUCCGGGCCAGGCAGGCAUCAAAAGAAAUAGUCUUGCGCUCAACAAGGAAGUCUGUAAUCAUUUUAAGGGUA,0
5,GUUAACGGUCAUAGGCCAUGGAAACUAGGAGCACCAUUUCGCUGCCAGUGAAGAAAUGAACAAAGAAAAUCCGGGCCAGGCAGGCAUCAAAAGGAAUAGUCUCGCGCUCAACCAGAAAGUCUGUAAUCAUUUUAAGGGUA,0.11
6,GUUAACGGUCAUAGGCCAUGGAAACUAGGAGCACCAUUUCGCUGCCAGUGAAGAAAUGAACAAAGAAAAUCUAUGCCUGGCAGGCACCAAAAGGAAUAGUCUUGCGCUCAACCAGAAAGUCUGUAAUCAUUUUAAGGGUA,0.16
7,GUUAACGGUCAUAGGCCAUGGAAACUAGGAGCACCAUUUCGCUGCCAGUGAAGAAAUGAACAAAGAAAAUCCGGGCCAGGCAGGCGUCAAAAGAAAUAGUCUUGCGCUCAACCAGAAAGUCUGCAAUCAUUUUAAGGGUA,0.09
8,GUUAACGGUCAUAGGCCAUGGAAACUAGGAGCACCAUUUCGCUGCCAGUGAAGAAAUGAACAAAGAAAAUCCGGGCCAGGCAGGCAUCAAAAGAGAUAGUCUUUCGCUCAACCAGAAAGUCUGUAAUCAUUUUAUGGGUA,0.01
9,GUUAACGGUCAUAGGCCAUGGAAACUAGGAGCACCAUUUCGCUGCCAGUGAAGAAAUGAACAAAGAAAAUCUGUGCCAGGCAGGCAUCAAAAGAAAUAGUCUUGCGCUCGACCAGAAAGGCUGUAAUCAUUUUAAGGGUA,0.01
10,GUUAACGGUCAUAGGCCAUGGAAACUAGGAGCACCAUUUCGCUGCCAGUGAAGAAAUGAACAAAGAAAAUCCGGGCCAGGCAGGCAUCAAAAGAAAUAGUCUUGCGCUCAACCAGAAAGUCGGUAAUCAUCUUAAGGGUA,0.41
11,GUUAACGGUCAUAGGCCAUGGAAACUAGGAGCACCAUUUCGCUGCCAGUGAAGAAAUGAACAAAGAAAAUCCGGGCCAGGCAGGCAUCAAUAGAAAUAGUCUUGCGCUCAGCCAGAAAGUCUGUAAUCAUUUUAAGGGUA,0.01
12,GUUAACGGUCAUAGGCCAUGGAAACUAGGAGCACCAUUUCGCUGCCAGUGAAGAAAUGAACAAAGAAAAUCCGGGCCAGGCAGGCAUCAAAAGAAAUAGUCUCGCGCUCAAACAGAAAGUCUGUAAUCAUUUUAAGGGUA,0.01
13,GUUAACGGUCAUAGGCCAUGGAAACUAGGAGCACCAUUUCGCUGCCAGUGAAGAAAUGAACAAAGAAAAUCAGGGCCAGGCAGGCAUCAAAAGAAAUAGUCUUGCGCUCAACCAGAGAGUCUGUAAUCGUUUUAAGGGUA,0.08
14,GUUAACGGUCAUAGGCCAUGGAAACUAGGAGCACCAUUUCGCUGCCAGUGAAGAAAUGAACAAAGAAAAUCUAGGCCAGGCAGGCAUCAAAAGAAAUAGUCUUGCGCCCAACCAGAAAGUCUGUAAUCACUUUAAGGGUA,0.01
15,GUUAACGGUCAUAGGCCAUGGAAACUAGGAGCACCAUUUCGCUGCCAGUGAAGAAAUGAACAAAGAAAAUCAGGGCCAGGCAGGCAUCAAAAGAAAAAGUCUUGCGCUCGACCAGAAAGUCUGUAAUCAUUUUAAGGGUA,0.02
16,GUUAACGGUCAUAGGCCAUGGAAACUAGGAGCACCAUUUCGCUGCCAGUGAAGAAAUGAACAAAGAAAAUCAGGGCCAGGCAGGCAUCAAAAGAAAUAGUCUUGCGCUCAACCAGAGAGUCUGUAAUCAUUUUGAGGGUA,0.15
17,GUUAACGGUCAUAGGCCAUGGAAACUAGGAGCACCAUUUCGCUGCCAGUGAAGAAAUGAACAAAGAAAAUCUAGGCCAGGCAGGCAUCAAAAGAAUUAGUCUCGCGCUCAACCAGAAAGUCUGUAAUCAUUUUAAGGGUA,0.15
18,GUUAACGGUCAUAGGCCAUGGAAACUAGGAGCACCAUUUCGCUGCCAGUGAAGAAAUGAACAAAGAAAAUCCGGGCCAGGUAGGCACCAAAAGAAAUAGUCUUGCGCUCAACCAGAAAGUCUGUAAUCAUUUUAAGGGUA,0.13
19,GUUAACGGUCAUAGGCCAUGGAAACUAGGAGCACCAUUUCGCUGCCAGUGAAGAAAUGAACAAAGAAAAUCAGGGCCAGGCAGGCAUCAAAGGAAAUAGUCUUGCGCUCGACCAGAAAGUCUGUAAUCAUUUUAAGGGUA,0.08
20,GUUAACGGUCAUAGGCCAUGGAAACUAGGAGCACCAUUUCGCUGCCAGUGAAGAAAUGAACAAAGAAAAUCCGGGCCAGGCAGGCAUCUAAAGAAGUAGUCUUGCGCUCAACCAGAAAGUCUGUAAUCAUUUUAAGGGUA,0.26
21,GUUAACGGUCAUAGGCCAUGGAAACUAGGAGCACCAUUUCGCUGCCAGUGAAGAAAUGAACAAAGAAAAUCCGGGCCAGGCAGGCAUCAAAAGAAAUAGCCUUGCGCUCAACCAGAAAGUCUGUAAUCAUUUUAGGGGUA,0.33

row,Variant,self-cleavage
1,GUUAACGGUCAUAGGCCAUGGAAACUAGGAGCACCAUUUCGCUGCCAGUGAAGAAAUGAACAAAGAAAAUCAGUGCCAGGCAGGCAUCAAAAGAAAUAGUCUUGCGCUCAACCAGUUAGUCUGUAAUCAUUUUAAGGGUA,0.01
2,GUUAACGGUCAUAGGCCAUGGAAACUAGGAGCACCAUUUCGCUGCCAGUGAAGAAAUGAACAAAGAAAAUCUGAGCCAGGCAGGCAUCAAAAGAAGUAGUCUUGCGCUCAUCCAGAAAGUCUGUAAUCAUUUUAAGGGUA,0.03
3,GUUAACGGUCAUAGGCCAUGGAAACUAGGAGCACCAUUUCGCUGCCAGUGAAGAAAUGAACAAAGAAAAUCCGGGCCAGGCAGGCACCAAAAGAAAUAGUCUUGCGCUCAACCAGAAGGUCUGUAGUCAUUUUAAGGGUA,0.1
4,GUUAACGGUCAUAGGCCAUGGAAACUAGGAGCACCAUUUCGCUGCCAGUGAAGAAAUGAACAAAGAAAAUCUGAGCCAGGCAGGCAUCAAAAGAAAUAGUCUUGCGCUCCACCAGAAAGUCUGUAACCAUUUUAAGGGUA,0.03
5,GUUAACGGUCAUAGGCCAUGGAAACUAGGAGCACCAUUUCGCUGCCAGUGAAGAAAUGAACAAAGAAAAUCCGGGCCAGGCAGGCAUCAAGAGAAAUAGUCUUGCGCUCAACCAGAGAGUCUGUAAUCAUUCUAAGGGCA,0.13
6,GUUAACGGUCAUAGGCCAUGGAAACUAGGAGCACCAUUUCGCUGCCAGUGAAGAAAUGAACAAAGAAAAUCCGGGCCAGGCAGGCGUCAGAAGAAAUAGUCUUGCGCUCAACCAGAAAGUCUGUAAUCAUUUUAAGGGUA,0.26
7,GUUAACGGUCAUAGGCCAUGGAAACUAGGAGCACCAUUUCGCUGCCAGUGAAGAAAUGAACAAAGAAAAUCUGAGCCAGGCAGGCAUCAAAAGAAAUGGCCUUGCGCUCAACCAGAAAGUCUGCAAUCAUUUUAUGGGUA,0.04
8,GUUAACGGUCAUAGGCCAUGGAAACUAGGAGCACCAUUUCGCUGCCAGUGAAGAAAUGAACAAAGAAAAUCAGGGCCAGGCUGGCACCAAAAGAAAUAGUCUUGCGCUCAACCAGAAAGUCUGUAAUCAUUUUAAGGGUA,0.24
9,GUUAACGGUCAUAGGCCAUGGAAACUAGGAGCACCAUUUCGCUGCCAGUGAAGAAAUGAACAAAGAAAAUCCGGGCCAGGCAGGCACCAAAAGAAAUAGUCUUGCGCUCAACCAGAAAGUCUGUAGUCAUUUUAAGGGUA,0.03
10,GUUAACGGUCAUAGGCCAUGGAAACUAGGAGCACCAUUUCGCUGCCAGUGAAGAAAUGAACAAAGAAAAUCCGGGCCAGGCAGGCAUCAAAAGAAAUAGCCUUGCGCUCAACCAGAAAGUCUGUAAUCAUUUUAAGGGCA,0.35
11,GUUAACGGUCAUAGGCCAUGGAAACUAGGAGCACCAUUUCGCUGCCAGUGAAGAAAUGAACAAAGAAAAUCCGGGCCAGGCAGGCAUCGAAAGAAAUAGUCUUGCGCUCAGCCAGAAAGUCUGUAAUCAUUUUAAGGGUA,0.02
12,GUUAACGGUCAUAGGCCAUGGAAACUAGGAGCACCAUUUCGCUGCCAGUGAAGAAAUGAACAAAGAAAAUCAGGGCCAGGCAGGCAUCAAAAGAGAUGGUCUUGCGCUCAACCAGAAAGUCUGUAAUCAUUUUAAGGGUA,0.04
13,GUUAACGGUCAUAGGCCAUGGAAACUAGGAGCACCAUUUCGCUGCCAGUGAAGAAAUGAACAAAGAAAAGCUGGGCCAGGCAGGCAUCAAAAGAAAUAGCCUUGCGCUCAACCAGAAAGUCAGUAAUCAUUUUAAGGGUA,2.63
14,GUUAACGGUCAUAGGCCAUGGAAACUAGGAGCACCAUUUCGCUGCCAGUGAAGAAAUGAACAAAGAAAAUCAGGGCCAGGCAGGCACCAAAAGAAAUAGUCUUGCGCUCAGCCAGAAAGUCUGUAAUCAUUUUAAGGGUA,0
15,GUUAACGGUCAUAGGCCAUGGAAACUAGGAGCACCAUUUCGCUGCCAGUGAAGAAAUGAACAAAGAAAAUAUGGGCCAGGCAGGCAUCAAAAGAAAUAGUCUUGCGCUCAGCCAGGAAGUCUGUAAUCAUUUUAAGGGUA,0
16,GUUAACGGUCAUAGGCCAUGGAAACUAGGAGCACCAUUUCGCUGCCAGUGAAGAAAUGAACAAAGAAAAUCCGGGCCAGGCAGGCAUCAAAAGAAAUAGUCUUGCGCCCAACCAGAAAGUCUGUAAUCGUUUUAUGGGUA,0
17,GUUAACGGUCAUAGGCCAUGGAAACUAGGAGCACCAUUUCGCUGCCAGUGAAGAAAUGAACAAAGAAAAUUUGGGCCAGUCAGGCAUCAAAAGAAUUAGUCCUGCGCUCAACCAGAAAGUCUGUAAUCAUUUUGAGGGUA,0.39
18,GUUAACGGUCAUAGGCCAUGGAAACUAGGAGCACCAUUUCGCUGCCAGUGAAGAAAUGAACAAAGAAAAGCUGGGCCAGGCAGGCAUCAAAAGAAGUAGUCUUGCGCUCAACCAGAAAGCCUGUAAUCAUUUUAAGGGUA,0.9
19,GUUAACGGUCAUAGGCCAUGGAAACUAGGAGCACCAUUUCGCUGCCAGUGAAGAAAUGAACAAAGAAAAUCAGGGCCAGGCAGGAAUCAAAAGAAAUAGUCUUGCGCUCAACCAGAAAGUCAGUAAUCAUUUUAAGGGUA,0.13
20,GUUAACGGUCAUAGGCCAUGGAAACUAGGAGCACCAUUUCGCUGCCAGUGAAGAAAUGAACAAAGAAAAUCCGGGCCAGGCAGGCAUCAAAAGAAGUAGUCUUGCGCUCAUCCAGAAAGUCAGUAAUCAUUUUAAGGGUA,0.04
